In all, about 44,000 compounds went through this assay and about 340 (0.77%) were called active. Inconclusive results (about 5%) are left out. Calls come from the whole dose curve; as a rule, active = well fitted inhibition curve with a large enough effect; inconclusive = small, poorly fitted or top-dose-only effect; inactive = flat fitted curve, though single readings scatter. The list shows a part of the results.
Test: Acumen qHTS Assay for Inhibitors of the mTORC1 Signaling Pathway in MEF (Tsc2-/-, p53-/-) Cells: Sytravon;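 note: plate controls were DMSO for no effect and rapamycin for full effect; nearly all actives have a fitted effect of over 50% in size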
Conditions: phospho-rpS6 immunofluorescence/PI, 24 h; series mostly up to 38.3 µM; activity change, negative = inhibition: at the top concentration
How it was run: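 Tsc2-/-, p53-/- MEFs (empty-vector stable line) in DMEM + 10% FBS were treated with compounds 24 h at 37 degree Celsius, fixed, and immunostained for phospho-rpS6 (Alexa-488) with propidium iodide counterstain. Laser-scanning cytometry gave % positive cells, normalized against 7.5 nM rapamycin and DMSO.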

SMILES | activity change, negative = inhibition
CCOc1ccc(NC(=O)Cn2cc(C(=O)c3ccc(F)cc3)c(=O)c3cc4c(cc32)OCO4)cc1 | inactive: -0.252%
COc1ccc(CCNS(=O)(=O)c2cc(-c3cc(C)no3)ccc2OC)cc1OC | inactive: 5.08%
CCOc1ccc(OCc2ccc(C(=O)Nc3cc(OC)c(OC)c(OC)c3)o2)cc1 | inactive: 1.67%
CC(C)c1ccc(-c2noc(SCC(=O)N3CCN(c4ccc(F)cc4)CC3)n2)cc1 | inactive: 2.94%
Cc1ccc(C)c(NC(=O)N(C)CCc2c(C)nn(C)c2C)c1 | inactive: 19.6%
O=C(CCc1ccccc1)N(Cc1cccnc1)c1nc2c(F)cc(F)cc2s1 | inactive: -1.15%
Cc1ccc(C)c(Nc2nn3c(=O)c4ccc(C(=O)NCCC5=CCCCC5)cc4nc3s2)c1 | inactive: -4.64%
Cc1ccc(N2CC(C(=O)NCCS(=O)(=O)N3CCN(c4ccccc4)CC3)CC2=O)cc1C (configuration not stated) | inactive: -1.72%
CCOc1ccc(-c2nc(CNC(=O)NC3CCCCC3)c(C)o2)cc1 | inactive: -2.98%
CCNc1nc(N)nc(Oc2ccc(OCC(=O)OC)nn2)n1 | inactive: 2.1%
CCN(CC)CCNc1ncnc2c1cnn2-c1cc(Cl)ccc1C | inactive: 0.0344%
Cc1ccc(C(=O)Nc2nc3nc(C)cc(=O)n3[nH]2)cc1 | inactive: -2.22%
CCCN(C(=O)C(=O)Nc1ccc2nc3n(c(=O)c2c1)CCCCC3)c1ccc(OCC)cc1 | inactive: 1.62%
COc1cccc(CNC(=O)CSc2nc(=O)[nH]c3c2CCC3)c1 | inactive: -4.74%
CCOc1ccccc1C(=O)Nc1cccc2ccc(C)nc12 | inactive: -10.4%
O=C(NCCc1csc(-c2ccc(Cl)cc2)n1)c1ccco1 | inactive: 2.08%
COc1ccc(CCNc2nc3ccc(Cl)cc3n3cnnc23)cc1OC | inactive: 4.1%
Cc1cccc2nc(-c3ccc(N(C)C)cc3)c(Nc3ccc4c(c3)OCO4)n12 | inactive: -13.3%
Cc1ccc(NC(=O)/C=C/c2ccc(Cl)cc2)c(Br)c1 | inactive: 0.413%
COc1cc(C2CC(=O)c3c([nH]c(C(=O)OCc4ccc(C)cc4)c3C)C2)cc(OC)c1OC (configuration not stated) | inactive: -2.26%
COc1ccccc1-c1nnc(C2CCN(C(=O)c3cccc(Cl)c3)CC2)o1 | inactive: -11.7%

SMILES | activity change, negative = inhibition
Cc1cccc(C(c2sc3nc(-c4ccco4)nn3c2O)N2CCN(Cc3ccccc3)CC2)c1 (configuration not stated) | inactive: -4%
CCOC(=O)c1ccccc1NC(=O)Cn1c(=O)n(CCC(=O)N2CCc3ccccc3C2)c(=O)c2ccccc21 | inactive: -17.7%
COc1cc(NC(=O)c2cc(Cl)ccc2Cl)ccc1NC(=O)c1cc2ccccc2o1 | inactive: 15.2%
COCCCNC(=O)c1[nH]c2ccccc2c1Sc1ccc(C)cc1 | inactive: -15.9%
CN(C)c1ccc(CNC(=O)c2cnc3sc(N4CCCC4)nn3c2=O)cc1 | inactive: -4.04%
Cc1ccccc1NC(=O)Cn1c(=O)n(CCCCCC(=O)NCc2ccccc2Cl)c(=O)c2sccc21 | inactive: -15.2%
CCS(=O)(=O)N1CCc2cc(C(=O)NCc3ccc(Cl)cc3)ccc21 | inactive: -5.84%
O=C(Cc1ccccc1)N(Cc1cccnc1)c1nc2ccc(Cl)cc2s1 | inactive: -6%
CCCOc1ccc(C(=O)Nc2ccc3oc(-c4ccc5ccccc5c4)nc3c2)cc1 | inactive: 2.92%
COc1ccc(NC(=O)c2ccc3c(SCC(=O)O)c4c(nc3c2)CCCC4)cc1OC | inactive: 0.472%
CCOC(=O)c1c(C)oc2ncnc(N3CCN(c4ccc(C)cc4C)CC3)c12 | inactive: 2.22%
O=C(NCCc1ccccc1)c1cc(-c2ccc(Br)cc2)on1 | inactive: -7.59%
CCOC(=O)c1cccc(-n2nnc3c(sc4nc(C)c(Br)c(C)c43)c2=O)c1 | inactive: -2.78%
Cc1sc2ncn(CC(=O)Nc3ccc(F)cc3Cl)c(=O)c2c1S(=O)(=O)N1CCN(c2ncccn2)CC1 | inactive: -2.15%
Cn1c(=O)c2c(nc(Oc3ccc(C#N)cc3)n2Cc2ccc(Cl)cc2Cl)n(C)c1=O | inactive: -9.58%
CCOC(=O)c1ccccc1NC(=O)Cn1c(=O)n(CCC(=O)NCc2ccccc2OC)c(=O)c2ccccc21 | inactive: -24.7%
COc1cccc(-c2nnc3n(Cc4ccc(C)cc4)c(=O)c4ccccc4n23)c1O | inactive: 3.03%
CCN1CCN(c2csc3ccc(F)cc3c2=O)CC1 | inactive: 1.28%
CCCCN(Cc1cccs1)S(=O)(=O)c1cc(-c2cc(C)no2)ccc1C | inactive: -12.5%
Cc1cccn2c(=O)cc(CSc3nnc(NC(=O)COc4ccc(F)cc4)s3)nc12 | inactive: -4.42%
COc1cccc(CNC(=O)c2[nH]c3cc(C)ccc3c2Sc2ccccc2)c1 | inactive: 0.502%

SMILES | activity change, negative = inhibition
CCOC(=O)c1c(S(=O)(=O)NCC(=O)N2CCN(c3cccc(Cl)c3)CC2)c(C)n(C)c1C | inactive: -0.159%
COc1ccc(-c2nc3scc(CCNS(=O)(=O)c4c(C)noc4C)n3n2)cc1OC | inactive: -14.9%
COc1ccccc1NC(=O)c1oc2ccccc2c1NC(=O)C(C)C | inactive: -1.47%
Cc1cccc(NC(=O)CSc2nnc3scc(-c4ccccc4)n23)c1 | inactive: 0.892%
COc1cccc(-c2nnc(-c3cc4cc(Cl)ccc4oc3=O)o2)c1 | inactive: 7.14%
O=C1CCc2cc(S(=O)(=O)NCc3ccc(Cl)cc3)cc3c2N1CC3 | inactive: 0%
COc1cc(-c2noc(CSc3nc(-c4ccc(F)cc4)cc(=O)[nH]3)n2)cc(OC)c1OC | inactive: -21.1%
CCC1CCC(C(=O)NC(C(=O)NCCN(CC(C)C)CC(C)C)C(C)C)CC1 (configuration not stated) | inactive: -11%
COc1ccccc1NC(=O)Cn1cnc2c(nc3n2CCCCC3)c1=O | inactive: 1.9%
O=c1c(N2CCN(c3cccc(C(F)(F)F)c3)CC2)csc2ccccc12 | inactive: 1.16%
CC1CCN(S(=O)(=O)c2ccc3c(c2)c(=O)c(C(=O)NCc2ccc(Cl)cc2)cn3C)CC1 | inactive: 3%
Cc1ccccc1CNC(=O)c1ccccc1NC(=O)c1nsc2ccccc12 | inactive: -18.2%
CC(C)(C)c1ccc(CSc2nc3c(c(=O)[nH]2)CCCC3)cc1 | inactive: -0.812%
O=C(Nc1ccc(Cl)c(C(F)(F)F)c1)C1CCCN(S(=O)(=O)c2cccc3cccnc23)C1 (configuration not stated) | inactive: -0.126%
O=C(Nc1ccc(F)cc1)N1CCN(c2ccc3nnc(-c4ccc(F)cc4)n3n2)CC1 | inactive: -0.246%
Cc1ccc(-n2nnc(-c3nsc(NC(=O)c4ccccc4C)n3)c2C)cc1Cl | inactive: -5.02%
CCOc1ccc(Nc2c(S(=O)(=O)c3ccc(Cl)cc3)cnc3ccc(OC)cc23)cc1 | inactive: -0.318%
COc1cccc(CN2C(=O)N(c3ccc(C)cc3)C(=O)C2CC(=O)Nc2cc(OC)cc(OC)c2)c1 (configuration not stated) | inactive: -0.376%
COc1ccc(-c2cn3c(n2)sc2cc(C(=O)NCc4cccs4)ccc23)cc1 | inactive: 7.7%
COc1ccc(-c2c3c(=O)n(C)c(=O)n(C)c3cn2-c2cccc(N)c2)cc1 | inactive: 0.927%
